Measured values taken from the supplement of paper PMC3334620.
Over roughly 33,000 sequences, “E-score (-0.5 to 0.5)” has its median near -0.056; the highest 2% begin near 0.38. The list shows a part of the results.

Target: Stb4 (UniProt P50104)
Experiment: PBM E-score (8-mer binding enrichment) (E-score (-0.5 to 0.5)); higher = stronger / more preferred TF binding; most listed sequences are background and not binding sites
Settings: protein concentration: 200 nM; construct: GST-DNA-binding domain
In short: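 PURExpress in vitro transcription/translation supplied GST-tagged yeast transcription factors, either full-length or DNA-binding domain. Applied at about 100-200 nM to universal all-10-mer Agilent arrays double-stranded by primer extension, the bound protein was detected with fluorescent anti-GST. E-scores, modified Wilcoxon-Mann-Whitney statistics, were given by the Universal PBM Analysis Suite to ungapped eight-base words pooled with their reverse complements after masliner normalisation.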

| Sequence | PBM E-score |
| --- | --- |
| GACATATA | 0.0246 |
| TACTGCGA | -0.199 |
| CACGGACA | 0.0424 |
| AGGCCCCT | -0.212 |
| CATTTTAC | 0.0779 |
| ATTCATTC | 0.172 |
| AGACATCC | 0.123 |
| AGCCATAA | -0.159 |
| GAGACTTA | -0.0893 |
| CTCCATGA | -0.166 |
| AAGCGTAA | 0.0981 |
| GTAAGTAC | 0.00926 |
| CTTATGCA | -0.211 |
| ACCAAATC | -0.108 |
| AGATTACC | 0.199 |
| AGGTTCTC | 0.00395 |
| CTTCGGCA | 0.443 |
| GCCTGCTA | -0.208 |
| CCACCCAC | 0.00917 |
| AGTGAGGC | -0.0956 |
| AGCACGAA | -0.0715 |
| ATCAATTG | -0.141 |
| GCCACCCA | -0.121 |
| ACCTCGCG | -0.0698 |
| CTCTTTGA | -0.285 |

| Sequence | PBM E-score |
| --- | --- |
| ATGAAGGA | -0.158 |
| ACGTGCAG | -0.147 |
| GTTATGAA | 0.0167 |
| CAATTGAA | -0.174 |
| CCGTTGCA | 0.0311 |
| CGCTGAAG | -0.0361 |
| ACCTACCG | 0.0744 |
| GAGTCATC | 0.0353 |
| AACTCCTT | -0.0527 |
| CTGGATGC | -0.153 |
| TAAGCCGA | 0.392 |
| AAGTGAGC | -0.178 |
| CCCACACA | -0.27 |
| ACGACCTG | -0.286 |
| GGGGATGA | -0.0342 |
| GTAAGCTA | -0.105 |
| ACTTCTGA | -0.216 |
| CAAACAAC | 0.0106 |
| ATAAACCC | 0.0851 |
| ACTACCTC | -0.00512 |
| CCTGATGA | -0.184 |
| GACAACGC | -0.106 |
| AAGAATCG | 0.197 |
| AGCGTCAG | -0.331 |
| ACTTCGTA | -0.111 |

| Sequence | PBM E-score |
| --- | --- |
| ACTTACCC | 0.27 |
| AAGCTAAA | -0.0871 |
| CAGTTGCG | -0.0584 |
| ACAGTTTG | -0.12 |
| CGGTCACC | 0.0522 |
| ATTTTGAG | -0.0118 |
| AGCGGGCA | -0.067 |
| CAAATGGA | -0.0648 |
| CAAGCCAG | -0.178 |
| AGCCTATC | 0.00436 |
| ACTGTACG | -0.153 |
| ACACTGGT | -0.266 |
| ATAACGTG | -0.238 |
| AATCCACC | -0.14 |
| CCGTACAA | 0.155 |
| CGAGCCAG | 0.207 |
| CACAAAAA | 0.109 |
| CACTAGCC | 0.236 |
| ATGTGCAA | -0.0852 |
| ATATGAAG | -0.0533 |
| GCTGGTTA | -0.169 |
| CATACCAG | -0.159 |
| AAAGTTAG | -0.00674 |
| ATGTCGCC | 0.0168 |
| AACAGCTC | 0.0753 |

| Sequence | PBM E-score |
| --- | --- |
| GCGCCCCA | -0.0809 |
| AGGAAATG | -0.148 |
| TAAGTAAA | -0.035 |
| ACGATTAT | 0.0179 |
| AGCAGGTG | -0.0921 |
| AACCGCCT | 0.115 |
| CAAAGAAA | -0.0442 |
| TTCCGGAA | 0.46 |
| GACTCTCC | -0.159 |
| AAATCCGT | 0.186 |
| GACTGACA | -0.0446 |
| ATTCGGTG | 0.169 |
| AGAGTCCA | -0.321 |
| AAGCTACT | -0.0913 |
| ACCTTGCG | -0.116 |
| CTACCGGC | 0.162 |
| GCTCCATA | -0.229 |
| CGTGCTCC | 0.168 |
| ACCCCGGG | 0.261 |
| ATTATCGG | 0.302 |
| GGGAGTCA | 0.156 |
| GACAGAAC | -0.018 |
| ACCCCATG | 0.00851 |
| CTGCAAGA | -0.169 |
| ATAACCAT | -0.0977 |

| Sequence | PBM E-score |
| --- | --- |
| AATGGATA | 0.138 |
| AACTTTCG | 0.132 |
| ACGCCCGC | 0.0103 |
| CAACGATG | -0.211 |
| GATGACAC | 0.00956 |
| GTGGGCCA | 0.043 |
| CATCGTCA | -0.333 |
| GTTCAGCA | -0.19 |
| AGGAAAAG | -0.115 |
| GTCTGTCA | -0.00777 |
| CCCTCTGA | -0.0599 |
| ATCGAGGC | -0.0909 |
| AAAAAGTA | -0.0355 |
| CCCTTTAC | -0.0394 |
| AATCTGCG | 0.0721 |
| AACAGTAA | -0.208 |
| ACTAGAGT | -0.164 |
| ACAGCTCT | -0.323 |
| CTCTAGAG | -0.00064 |
| ACTGTTAA | -0.237 |
| TATATTAA | 0.0622 |
| ACTGCGAC | -0.00264 |
| AAACGAGG | -0.142 |
| ACCGCTAG | -0.295 |
| AACTTGTC | 0.0103 |

| Sequence | PBM E-score |
| --- | --- |
| CAGTAGCG | -0.0884 |
| TAACTCGA | 0.0229 |
| CTAGGTAA | -0.147 |
| ACACGTGA | -0.0353 |
| ACCTGGTG | -0.0216 |
| AAAGGAGT | 0.0609 |
| GACTGAAC | -0.0466 |
| CGTCAGGA | -0.157 |
| GATGTACA | -0.0272 |
| GGTCCAAC | 0.0127 |
| AATCGCGG | 0.1 |
| CACCTGCC | 0.00594 |
| ACAGAATC | -0.0638 |
| AGATGTAT | -0.214 |
| CCCAACTC | 0.135 |
| CAAGGTTC | 0.0397 |
| GACAAGAA | -0.0789 |
| AAAACCTT | 0.0361 |
| CATGGGCC | -0.00909 |
| GACGTCGC | -0.283 |
| ACGCATTG | -0.193 |
| ATTAGAAT | -0.0347 |
| AACGCGAT | 0.0057 |
| CTGCAAAA | -0.0685 |
| CGCCAGAG | -0.0752 |

| Sequence | PBM E-score |
| --- | --- |
| ATTACAGC | -0.25 |
| CCGAGATC | 0.435 |
| CAGAACCA | -0.271 |
| AAAAGATG | -0.204 |
| GATCGTAA | -0.0241 |
| CATTAGGA | -0.271 |
| GAAGACTC | -0.115 |
| TATTAAAA | 0.0956 |
| GGTCGTAC | 0.0644 |
| GGGTGGAA | -0.0531 |
| ACCGCGGT | 0.0633 |
| AGGTAGAT | -0.00788 |
| CCCTTCCG | 0.363 |
| ATATATCC | 0.332 |
| TACCAGTA | 0.0144 |
| CTATCCTC | -0.0662 |
| ATATCGGC | 0.316 |
| GGAAGTAC | 0.317 |
| GTGCTGAA | -0.176 |
| ACCGACGA | 0.285 |
| GTCCCGAC | 0.376 |
| CACTTAGA | -0.034 |
